Measured values as given in the RNAGym collection of RNA variant scans (doi:10.7554/elife.90254).
The source gives no read counts; variants with many changes may rest on few reads.

B1: LINE1-mini (parent)
chain: GGCAGAGCUCAACACAGCGUGGCAAAGUGGCUGUGGCUAGACUGCC

Variants of: B1
Assay: self-cleavage, relative activity (ratio to wild type); higher = more cleavage; in vitro, sequencing; the parent is a self-cleaving ribozyme

Variant | self-cleavage
U28G G35U C37G G44U | 0.01
C8U G19C G21C | 0.01
C13A A14C G27C | 0.1
A12G A14C U20G A39G | 0.11
G1U G30C U34G A41C U43A | 0.01
G5C G7A C18G | 0.13
U9G A12C U38C | 0.02
A6U C13U A16C G27U G44U | 0.21
G21U U28C C45U | 0.22
A16G G30A C37U A39U | 0.06
C23A C37U G40C | 0.16
G17C G21A G22C | 0.95
G5A A25C U28C G44U | 0.05
G1A G21C C45A | 2.56
G1U C3A G5C U20A C37A | 0.14
G7C C18A G22A | 0.31
A11U A16C A26U | 0.02
G1A A11G C15U A25C U28A G35C | 0.04
A4G G7U A12C G21A G30A G36U | 0.09
C8A U20A G21U A25C | 0.04
G1U A4G G30A U32C | 0.02
A4U G30C G36A | 0.21
G2A G22C C37A | 0.08
A6G A11U A16C C23U G35A U43G | 0.02

Variant | self-cleavage
G5U U20G A24C G36U | 0.02
C8U C13A A16G G30U U34A | 0.04
A4U U28C C46G | 0.2
G1A C10A A16C G22A C23U C31U | 0.03
G7U C8U U9A A11C U20G A26U C31U | 0.01
G2U A4C C10G A12C C13U G21U | 0.01
A11C U32A U38C G40C U43A | 0.01
C15A U34A A39U | 0.14
C10A C18G U32A | 0.03
G2C A12C C23U A41G | 0
A14C A26G U38G | 0
A12G G22A C23A U38C | 0.01
C10U C18A C23U C31G | 0.06
A12G G19A G40A | 0.04
C18A G40C C42U | 0.03
C3G C13A C15A G22U A41U | 0.14
C3A G17U C18A A25U | 0.17
G22U G29U C45A C46U | 0.45
A4G U9A U43C | 0.25
G22A G33U G36A | 0.08
C3U A11C C15G G21A A24U G30A | 0.01
G5A G19U C23A A26C | 0.05
G5A A39U C45U | 0.07
A4G C18A A24G A39U | 0.05

Variant | self-cleavage
G1U A16G G27U | 0.16
A4G A14C C18A C46G | 0.06
C31A C42U C45A C46G | 0.05
G2C A26C G36U | 0.1
C10A C37A A41C | 0.02
G5U G35A A39U | 0.1
C3A C8G G19U U20A G35U | 0.05
A24C G27U G29C | 0.75
C13G G19U G33A U34G C42U U43C | 0.01
G22A A26U G27A | 0.67
G2A C13A A25U | 0.25
C8A A11G C42G | 0.03
C10U A11U G17C G19C G30A | 0.04
A12C G17C C18U G27A | 0.02
A26C C42U U43A C46A | 0.08
U9G A25C G29U U38A | 0.02
A4U G19C A26C C46A | 0.09
C8A A12C A14C | 0.02
U9A C10G G19U A24C U28C | 0.03
G5C C8U U28C | 0.01
G5C C15U C18G G33C G44C | 0.06
C31U C37U C45U C46A | 0.09
A4C G40C U43G | 0.04
U9G A14C G21A C23A | 0.04

Variant | self-cleavage
A4G C18G A26U U32A G44A | 0.04
C3G U9C G27U G36U C37A | 0.01
G17A G21U G40C A41U C42U U43C | 0.03
C10A A39C C46U | 0.08
C18G A41C C42G | 0.04
U20G A26U A41C | 0.05
A4G A12C C15U C23U A26G | 0.02
G29C G36U C46U | 0.15
A12C A14U G19U | 0.03
A24U G30C A39U G44A | 0.03
G27A G35A A39U | 0.04
C15A G17C G36C G40C A41U C46A | 0
G1U C23G C46A | 0.16
C3A C10U G17U G22U U32G | 0.07
U9G C15A U20G G30A U34G G35A | 0.09
G2U G36A G40A | 0.04
G7U C18G U20C G22C | 0.05
G1C C23A C31G | 0.02
C8U U32G U38G A41G | 0.02
A25G C37G U43G | 0
G2U G5A C23G G27A G33C | 0.03
C10G C13A C15G C42U | 0.01
A24U G33U A39U | 0.04
U9G C15A C46A | 0.05

Variant | self-cleavage
C13A A14U G21A C46A | 0.09
A12G C13U G29A G30A | 0.03
G7U C13G G17U C18A C23A G33U G44C | 0.02
G5C A24U G27C G36C | 0.04
C8U C31G U32A G36U | 0.27
C3G C23G G40U A41C C45A | 0.05
A14U G33A G44A | 0.03
A14U C15A U20C C31A | 0.09
C18A A26C C31U C37U C46A | 0.04
C3G A16U G19C A25G G40C | 0
G2U C31G C42U | 0.04
C3G C8A C46U | 0.47
C15A G29U U43A | 0.08
G1C A6U C13A A24U U28G U38G C45A | 0.01
G19U C31U C42A G44U | 0.02
G29A C31U G36U | 0.03
A12U A25G U32C G35C U43G | 0.01
A12U A25C C45G | 0.1
C3A G17C U34A C37G C46A | 0.07
A11G U34G C42U | 0
U9A A14C G19C C42A | 0.04
G21U G33U U34G G44U | 0.06
G5A G36U U38C | 0.03
G29A G40A G44C C45G | 0.16

Variant | self-cleavage
C15A G21C A24U A26U C31U C45U | 0.02
C10U U32G G33A U43A | 0.06
G19C G21U G27A G40A C42A C45U | 0
G5C A11C G36C | 0.01
A12C C18G G35U | 0.04
G1A C3A A25C | 2.54
C10A G30U U38C U43G | 0
A16G U20C G27U G36U | 0.02
G2C C3G G21A G30U | 0.55
G17U C18G A41G | 0.02
G5U C8G A11C | 0
G1A A14U C23A | 1.2
A11C A14C U20C C37A | 0.02
U9A G17C C37A | 0.14
G5A C15U C23G G29A U38G U43C | 0
G17A G21A C23G U38A | 0.72
G2U A11G A16G G17U G22U C42U | 0
C3G A6G A16C G19C G36U | 0.02
G2A C3G G22U A25G C31U | 0.11
C3A G29C U38A | 0.36
C15A G33A C37A U38A | 0.03
A16C G22A C23U G35A | 0.03
A14U C37G U38A | 0
G2U C3A C23G | 0.2

Variant | self-cleavage
A26U C31G C37U | 0.33
A26U C31U C42G | 0.04
G5C G21C C42A | 0.09
G17C C18U C46A | 0.1
G2A G7U C15U G21A C46U | 0.1
C3U A6G C10U A16C | 0
C13A C18A G21A | 0.03
C3G U20A U28G C46U | 0.12
A4G G7C C23U C31G | 0.15
U9G A14C A24C G30C | 0.03
U20A G40U A41C | 0.29
G22A G33U G44C | 0.2
G30U U38G A39U G40A A41C C46G | 0.03
G5A U9C A12U C18A G19C | 0.04
G29A G35A U38G | 0.03
C10A A11G A41G | 0.03
C3G G22C A25G C45A | 0.03
A16G C23A U32C G40U | 0.03
A12U A16C C23A G27C | 0.23
C10U G17A A26U G36C | 0.04
G30U G33U C37A | 0.06
U9A G17C G40U | 0.17
U9A C10G U32G U43A C46U | 0.02
